42 compounds from ChEMBL document CHEMBL4888484, “Replenishing the malaria drug discovery pipeline: Screening and hit evaluation of the MMV Hit Generation Library 1 (HGL1) against asexual blood stage Plasmodium falciparum ,using a nano luciferase reporter read-out” (2022) can be followed below.

Out of some 150,000 compounds screened, about 540 (0.36%) showed an effect of 50% or more. This is one part of the list.

In the experiment the test system is Plasmodium falciparum. As to the kind of experiment: Primary screen in NF54 nanoGlo assay, in single point, at 2uM, 72h; a lower Z score goes with more inhibition. The format is functional, Erythrocyte. Particulars: timepoint 72 hour.
As a reminder, the % Inhibition is the drop in the measured response relative to a control, in per cent. Consider `O=S(=O)(CC1CCCO1)N1CCOCC1c1cccc(F)c1` (centres undefined), for which the “% Inhibition” value is -5% and the Z score was 0.81.
`O=C(NC1CCOCC1)N1CCO[C@H](c2cc(Cl)cc(Cl)c2)C1`: the “% Inhibition” value is -8% and the Z score amounted to 0.86.
In the same order, the values of `COc1c(CNCc2nc3cc(Cl)ccc3s2)c(C)nn1C` are 9% and -0.84.
In the same order, the values of `O=C1NC2(CCN(C(=O)NCc3ccc(F)cc3)CC2)Nc2c(Cl)cccc21` are -11% and 1.42.
On the same counts, the results for `CC1CCCC(CNCc2ccncc2)(N(C)C)C1` (centres undefined) are -17% and 1.99.
Regarding `Cc1nn(C)c(C)c1CN1CCN(S(C)(=O)=O)c2ccccc2C1`, the “% Inhibition” value was -16% and the Z score is on record as 1.38.
In the same order, the values of `N#Cc1cc(F)c(NCCCn2cncn2)c(F)c1` are -2% and 0.3.
Consider `Cc1cc(C(=O)Nc2nnc(-c3ccc(S(=O)(=O)N(C)C)cc3)o2)no1`, for which the “% Inhibition” value is on record as -7% and the Z score is recorded as 0.92.
In the same order, the values of `FC(F)(F)c1cc(-c2cc[nH]n2)c2nc[nH]c2c1` are 10% and -1.67.
On the same counts, the results for `NC(=O)[C@H]1CCCN(Cc2ccc(NCc3ccns3)cc2)C1` are -13% and 1.52.
In the same order, the values of `CC[C@H]1CCCN(C(=O)Nc2sc(C)nc2C)C1` are -11% and 1.47.
Take `CC(=O)N1CCC[C@H](c2noc(-c3sc4cccc(F)c4c3C)n2)C1`: the “% Inhibition” value was -11% and the Z score was found to be 2.02.
In the same order, the values of `Cc1cnn(CC(C)NCC(=O)NC2CCCc3ccccc32)c1` (centres undefined) are -9% and 1.43.
In the same order, the values of `COc1ccc2oc(CNc3ncc(F)c(N4CCOCC4)n3)nc2c1` are -3% and 0.4.
Consider `CCCNC(=O)CCCn1nnc2cc(S(=O)(=O)N3CCCCC3)ccc21`, for which the “% Inhibition” value is recorded as -15% and the Z score stood at 2.06.
On the same counts, the results for `Cc1ccc(Cl)cc1NC(=O)CC1(N2Cc3ccccc3C2=O)CCOCC1` are -5% and 0.78.
In the same order, the values of `CC(C)CCNC(=O)N1CCOc2ccc(C(=O)N3CCOCC3)cc2C1` are -1% and 0.21.
For `CCC(NC(=O)Cn1nc(C)cc1N)[C@H]1C[C@H](O)C1` (some centres undefined), the “% Inhibition” value was -11% and the Z score was found to be 2.15.
`CCO[C@H]1COCC[C@@H]1NC(=O)c1ccc2c(c1)CCCC2`: the “% Inhibition” value was determined as 14% and the Z score is -1.9.
In the same order, the values of `O=C(c1ccn(COc2ccccc2Cl)n1)N1CCOCC1` are 2% and -0.35.
Turning to `Cc1ccc(-c2nccc(Nc3cccc(C(=O)NCCC4=CCCCC4)c3)n2)cc1`, the “% Inhibition” value is 3% and the Z score is listed as -0.27.
On the same counts, the results for `O=C(NC1CCN(c2ncnc3c2CCCC3)CC1)c1ccco1` are -10% and 1.26.
For `CC(=O)N1CCc2nc(-c3ccco3)nc(N3CCCOCC3)c2CC1`, the “% Inhibition” value is recorded as 0% and the Z score is recorded as -0.02.
For `CCn1ccc(C(=O)N2CCC[C@@]3(CCC(=O)N(Cc4cccnc4)C3)C2)n1`, the “% Inhibition” value was -4% and the Z score turned out to be 0.8.
On to `CCNC(=O)N(C1CC1)[C@H]1CCOC2(CCN(C(=O)Nc3ccc(OC)cc3)CC2)C1`, for which the “% Inhibition” value is on record as -12% and the Z score turned out to be 1.78.
In the same order, the values of `CCC(C)(C)NC(=O)c1ccc(Cl)cc1` are 1% and -0.2.
In the same order, the values of `CN(C(=O)Cc1cc(Cl)ccc1Br)c1cnn(C)c1` are -11% and 1.77.
In the same order, the values of `CC(C)N(CC(F)(F)F)S(=O)(=O)c1cccc2ccncc12` are -4% and 0.58.
Turning to `C=CCNC(=O)c1snc(-c2ccncc2)c1N`, the “% Inhibition” value is on record as -7% and the Z score was found to be 1.2.
In the same order, the values of `CCC(NC(=O)CCC(F)(F)F)[C@H]1C[C@H](O)C1` (some centres undefined) are -16% and 1.63.
In the same order, the values of `CC(C)(C)OC(=O)N/N=C(\N)c1ccc(Cl)cc1` are -14% and 1.64.
For `O=C(NCc1ccccc1)C(=O)N(Cc1ccccc1)C1CC1`, the “% Inhibition” value is -17% and the Z score is 1.46.
In the case of `CCN1CCC(CC(=O)N2CCN(c3ccccc3)[C@H](C(=O)O)C2)CC1`, the “% Inhibition” value is given as -15% and the Z score is 2.95.
On the same counts, the results for `CN(C)c1ccc(-c2nnnn2[C@H]2CO[C@H]3[C@@H]2OC[C@@H]3NC(=O)Nc2ccccc2)cc1` are 13% and -1.54.
On the same counts, the results for `COCC(=O)N[C@@H]1CC[C@H]2CCOc3ccccc3C(=O)N3CCN(C4CCC(F)(F)CC4)C[C@H]3C(=O)NC[C@H]1O2` are -4% and 0.54.
On the same counts, the results for `O=C(Cn1nc(C2CC2)cc1C(=O)N1CCCC1)Nc1ccc(F)cc1Cl` are -12% and 1.85.
For the compound `CNC(=O)c1cc(NC(=O)N2CCC[C@]3(CC2)CNC(=O)O3)ccc1OC`, the “% Inhibition” value is -5% and the Z score was determined as 0.46.
As for `Cc1nc(C)c(-c2cccc(C(=O)NCCCN3CCNC(=O)C3)c2)s1`, the “% Inhibition” value was determined as 0% and the Z score was -0.04.
On to `O=C(NCc1c(Cl)c(Cl)cc(Cl)c1OC(=O)c1cccc2ccccc12)c1ccccc1`, for which the “% Inhibition” value is listed as -14% and the Z score worked out at 2.45.
Turning to `CCOC(=O)N1CCc2c(nc(-c3ccc(C)cc3)n(CC(=O)Nc3ccc(C(C)C)cc3)c2=O)C1`, the “% Inhibition” value came to 36% and the Z score is -4.11.
On the same counts, the results for `Cc1nnsc1CN1CCC[C@H]1C(=O)N1CCCCC1` are -10% and 2.09.
In the same order, the values of `COCCN(Cc1nc(C(=O)NC(C)C)cs1)C(=O)Nc1ccc(C(C)C)cc1` are 33% and -0.65.
